This is one part of the list. Interaction screen of human proteins with wild-type SARS-CoV-2 proteins by split-DHFR complementation in yeast, 1 µg/mL methotrexate. Value = fitness of the pair (three or more lineages) minus that of the viral protein without a human partner, on a scale set by negative (0) and fused positive (1) controls, mean of up to three cultures; higher = more likely to interact. Active = false discovery rate below 0.05 (one-sided t-test) in at least one culture. Nearly all pairs are not hits, and differences among them are mostly noise (correlation between cultures about 0.3); most hits were seen in one culture only. Human sequences are the Swiss-Prot entries looked up by gene name; the clone may be another isoform. NSP2 values were corrected by the authors for a growth advantage. Listed are human proteins with a hit and a random twelfth of the others.
Key:
Assay in all cases: yeast fitness gain over the viral ORF with no human partner (scaled fitness); higher = more likely to interact
SARS-CoV-2 NSP10 = molecular target: SARS-CoV-2 NSP10
Description: (§1)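 Split mouse DHFR complementation in pooled diploid yeast: human ORFeome clones carry one fragment and viral ORFs the other; barcoded lineages compete in 1 µg/mL methotrexate and fitness is read by barcode sequencing in up to three cultures.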

SARS-CoV-2 NSP12 = molecular target: SARS-CoV-2 NSP12
Description: as §1

SARS-CoV-2 NSP13 = molecular target: SARS-CoV-2 NSP13
Description: as §1

SARS-CoV-2 NSP2 = molecular target: SARS-CoV-2 NSP2
Description: as §1

SARS-CoV-2 NSP5 = molecular target: SARS-CoV-2 NSP5
Description: as §1

SARS-CoV-2 NSP6 = molecular target: SARS-CoV-2 NSP6
Description: as §1

SARS-CoV-2 NSP8 = molecular target: SARS-CoV-2 NSP8
Description: as §1

SARS-CoV-2 NSP9 = molecular target: SARS-CoV-2 NSP9
Description: as §1

SARS-CoV-2 ORF6 = molecular target: SARS-CoV-2 ORF6
Description: as §1

SARS-CoV-2 ORF9B = molecular target: SARS-CoV-2 ORF9B
Description: as §1

SARS-CoV-2 NSP16 = molecular target: SARS-CoV-2 NSP16
Description: as §1

SARS-CoV-2 NSP4 = molecular target: SARS-CoV-2 NSP4
Description: as §1

SARS-CoV-2 NSP7 = molecular target: SARS-CoV-2 NSP7
Description: as §1

SARS-CoV-2 ORF10 = molecular target: SARS-CoV-2 ORF10
Description: as §1

SARS-CoV-2 ORF7A = molecular target: SARS-CoV-2 ORF7A
Description: as §1

SARS-CoV-2 ORF7B = molecular target: SARS-CoV-2 ORF7B
Description: as §1

SARS-CoV-2 ORF8 = molecular target: SARS-CoV-2 ORF8
Description: as §1

SARS-CoV-2 S = molecular target: SARS-CoV-2 S
Description: as §1

SARS-CoV-2 ORF3A = molecular target: SARS-CoV-2 ORF3A
Description: as §1

SARS-CoV-2 ORF3B = molecular target: SARS-CoV-2 ORF3B
Description: as §1

[1] = molecular target: SARS-CoV-2 ORF9Bwu (the 73-codon ORF)
Description: as §1

Measured: yeast fitness gain

B1: SLC26A5, P58743 (protein)
chain: MDHAEENEILAATQRYYVERPIFSHPVLQERLHTKDKVPDSIADKLKQAFTCTPKKIRNIIYMFLPITKWLPAYKFKEYVLGDLVSGISTGVLQLPQGLAFAMLAAVPPIFGLYSSFYPVIMYCFLGTSRHISIGPFAVISLMIGGVAVRLVPDDIVIPGGVNATNGTEARDALRVKVAMSVTLLSGIIQFCLGVCRFGFVAIYLTEPLVRGFTTAAAVHVFTSMLKYLFGVKTKRYSGIFSVVYSTVAVLQNVKNLNVCSLGVGLMVFGLLLGGKEFNERFKEKLPAPIPLEFFAVVMGTGISAGFNLKESYNVDVVGTLPLGLLPPANPDTSLFHLVYVDAIAIAIVGFSVTISMAKTLANKHGYQVDGNQELIALGLCNSIGSLFQTFSISCSLSRSLVQEGTGGKTQLAGCLASLMILLVILATGFLFESLPQAVLSAIVIVNLKGMFMQFSDLPFFWRTSKIELTIWLTTFVSSLFLGLDYGLITAVIIALLTVIYRTQSPSYKVLGKLPETDVYIDIDAYEEVKEIPGIKIFQINAPIYYANSDLYSNALKRKTGVNPAVIMGARRKAMRKYAKEVGNANMANATVVKADAEVDGEDATKPEEEDGEVKYPPIVIKSTFPEEMQRFMPPGDNVHTVILDFTQVNFIDSVGVKTLAGIVKEYGDVGIYVYLAGCSAQVVNDLTRNRFFENPALWELLFHSIHDAVLGSQLREALAEQEASAPPSQEDLEPNATPATPEA
inactive: SARS-CoV-2 NSP10 = -0.00445 | SARS-CoV-2 NSP12 = 0.0343 | SARS-CoV-2 NSP13 = -0.169 | SARS-CoV-2 NSP2 = -0.00362 | SARS-CoV-2 NSP5 = 0.149 | SARS-CoV-2 NSP6 = -0.0825 | SARS-CoV-2 NSP8 = 0.0312 | SARS-CoV-2 NSP9 = -0.339 | SARS-CoV-2 ORF6 = -0.0446 | SARS-CoV-2 ORF9B 0.05

B2: RARS, P54136 (protein)
chain: MDVLVSECSARLLQQEEEIKSLTAEIDRLKNCGCLGASPNLEQLQEENLKLKYRLNILRKSLQAERNKPTKNMINIISRLQEVFGHAIKAAYPDLENPPLLVTPSQQAKFGDYQCNSAMGISQMLKTKEQKVNPREIAENITKHLPDNECIEKVEIAGPGFINVHLRKDFVSEQLTSLLVNGVQLPALGENKKVIVDFSSPNIAKEMHVGHLRSTIIGESISRLFEFAGYDVLRLNHVGDWGTQFGMLIAHLQDKFPDYLTVSPPIGDLQVFYKESKKRFDTEEEFKKRAYQCVVLLQGKNPDITKAWKLICDVSRQELNKIYDALDVSLIERGESFYQDRMNDIVKEFEDRGFVQVDDGRKIVFVPGCSIPLTIVKSDGGYTYDTSDLAAIKQRLFEEKADMIIYVVDNGQSVHFQTIFAAAQMIGWYDPKVTRVFHAGFGVVLGEDKKKFKTRSGETVRLMDLLGEGLKRSMDKLKEKERDKVLTAEELNAAQTSVAYGCIKYADLSHNRLNDYIFSFDKMLDDRGNTAAYLLYAFTRIRSIARLANIDEEMLQKAARETKILLDHEKEWKLGRCILRFPEILQKILDDLFLHTLCDYIYELATAFTEFYDSCYCVEKDRQTGKILKVNMWRMLLCEAVAAVMAKGFDILGIKPVQRM
inactive: SARS-CoV-2 NSP10 = 0.0952 | SARS-CoV-2 NSP12 = -0.0214

B3: C15orf37, Q8NBB2 (protein)
chain: MPRPASESWSPIQSRIPAYKAVSHLRLLPTANSPSGSNQPTNPNRAQHPEGPQSREGATSPVLASLEPPTPTDLPSARARPRVPAESGPGWLHKARRPTRGILRDVLRHRGVPAQPRPAPGAHQLSSPSS
inactive: SARS-CoV-2 NSP10 = 0.0349 | SARS-CoV-2 NSP13 = -0.0867 | SARS-CoV-2 NSP16 = -0.0466 | SARS-CoV-2 ORF9B -0.138

B4: RBFA, Q8N0V3 (protein)
chain: MWAAAGGLWRSRAGLRALFRSRDAALFPGCERGLHCSAVSCKNWLKKFASKTKKKVWYESPSLGSHSTYKPSKLEFLMRSTSKKTRKEDHARLRALNGLLYKALTDLLCTPEVSQELYDLNVELSKVSLTPDFSACRAYWKTTLSAEQNAHMEAVLQRSAAHMRHLLMSQQTLRNVPPIVFVQDKGNAALAELDQLLAVADFGPRDERDNFVQNDFRDPDAPQPCGTTEPTTSSSLCGIDHEALNKQIMEYKRRKDKGLGGLVWQGQVAELTTQMKKGRKRAKPRLEQDSSLKSYLSGEEVEDDLDLVGAPEYECYAPDTEELEAERGGGRTEDGHSCGASRE
inactive: SARS-CoV-2 NSP10 = 0.0166 | SARS-CoV-2 NSP12 = 0.102 | SARS-CoV-2 NSP13 = 0.0334 | SARS-CoV-2 NSP16 = 0.0543 | SARS-CoV-2 NSP2 = -0.0489 | SARS-CoV-2 NSP4 = -0.208 | SARS-CoV-2 NSP5 = -0.0481 | SARS-CoV-2 NSP7 = 0.0456 | SARS-CoV-2 NSP8 = 0.00536 | SARS-CoV-2 ORF10 = -0.0934 | SARS-CoV-2 ORF6 = 0.0298 | SARS-CoV-2 ORF7A -0.158 | SARS-CoV-2 ORF7B 0.0559 | SARS-CoV-2 ORF8 = 0.0833 | SARS-CoV-2 ORF9B 0.0211 | SARS-CoV-2 S 0.0658

B5: SMR3B, P02814 (protein)
chain: MKSLTWILGLWALAACFTPGESQRGPRGPYPPGPLAPPQPFGPGFVPPPPPPPYGPGRIPPPPPAPYGPGIFPPPPPQP
inactive: SARS-CoV-2 NSP10 = -0.0261 | SARS-CoV-2 NSP12 = -0.133 | SARS-CoV-2 NSP13 = -0.0268 | SARS-CoV-2 NSP16 = -0.129 | SARS-CoV-2 NSP2 = -0.18 | SARS-CoV-2 NSP5 = -0.0912 | SARS-CoV-2 NSP6 = -0.0397 | SARS-CoV-2 NSP7 = -0.0839 | SARS-CoV-2 NSP8 = 0.0579 | SARS-CoV-2 ORF10 = 0.0259 | SARS-CoV-2 ORF3A -0.0569 | SARS-CoV-2 ORF3B -0.0446 | SARS-CoV-2 ORF6 = -0.0471 | SARS-CoV-2 ORF7A -0.00139 | SARS-CoV-2 ORF7B 0.0225 | SARS-CoV-2 ORF8 = 0.0355 | SARS-CoV-2 ORF9B -0.0875 | [1] -0.228 | SARS-CoV-2 S 0.0488

Reference: the supplement of paper PMC11741623
